Results published in the supplement of paper PMC11417369.
The list shows a part of the results.

System: PfAP2-HC AP2 domain (GST-tagged)
Test: gcPBM binding intensity (ln(normalized median fluorescence intensity)); higher = stronger DNA binding
How it was run: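 Plasmodium falciparum DNA-binding domains carrying a GST tag were expressed in E. coli and applied for 1 h, at about 25 μg on average, to an Agilent 4 × 180k array. The array held primer-extended double-stranded 36-bp intergenic genomic probes together with negative controls, and binding took place in 1× PBS with 1% milk, 0.2 mg/ml BSA, 0.5% salmon testes DNA and 0.03% Triton X-100. An Alexa488 anti-GST antibody detected bound protein, and the array was scanned at 488 nm. Binding intensity is taken as the highest Masliner-normalised natural-log median intensity across replicate spots of either probe orientation.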

Sequence	gcPBM binding intensity (ln)
TTCATTTAGCAAGAATGTACTTATATATATATATAT [XGTACX_site3401]	9.57
ATAAAGCCATACAATACACACATTTTACATGGGGGT [CACACA_site9072]	9.88
CAAAAAAATGTGAAGGCATGCAAATATGTAAAATAA [TGCATGCA_site921]	10.9
CCATAAAAAGGATACACACACACACCGACATATATA [CACACA_site4653]	10.9
GTAGTAAATAGGAGGATGCATATGGCACACATTATA [TGCATGCA_negctrl_site59]	9.96
ATATAAAAATTAAAATGTACATATCTTATTATAATA [XGTACX_site983]	9.62
TAATAAAATAATATCACACATATTTATATATATTAT [CACACA_site5814]	9.61
CAACATAAAAATTAAGCATGCAATAGACTTGTGTTG [TGCATGCA_site417]	9.77
GTTTAAAAAAATTATCAACTTTAAAAAGGTAACATT [XGTACX_negctrl_site203]	9.41
CACGCATACGGACACACACACACACCGATATATATA [CACACA_site4521]	11
TATTTTTTTATTTGTGCATGTCATATTTAAACATAA [TGCATGCA_site1006]	9.63
TGAATAATATACATACGTACATACATATATATAATA [XGTACX_site1302]	9.64
TTTTTTTTTTTTTTTTTTTTCATTCAATTATATTTA [CACACA_negctrl_site712]	8.79
TTATCACATAAACGATGTACGTACTAGGTTTTTTTT [XGTACX_site2147]	9.61
AAAGGAATATAATGATGTACACAAATATATATACAT [XGTACX_site5347]	9.89
AACTAATATAATAATACATGCACATAAAAATATATA [TGCATGCA_site606]	9.78
TTTACTTTTTTTTCTTGTACTCATACATACTATCAT [XGTACX_site4919]	9.85
AAATTTCAATAATCTACACACATAAAAAAACAAAAG [CACACA_site1702]	9.99
GGCAACAATGTAGATTGTACATATGAATTTTACAAT [XGTACX_site5655]	9.52
ATATTTTGTTTTATAGTGCACATGGGCATATATTAA [GTGCAC_site9435]	9.57
ATATATATTATCATTGTGCACTTATTTATATACCTT	10
ATATTTTATTATTGTTGTACTTTTTTTTTTTGATTG [XGTACX_site4091]	9.65
ATAATATGAAAACACACACACACACTAATAAAAAAA [CACACA_site8617]	11.5

Sequence	gcPBM binding intensity (ln)
TTTAATAAATAAATAAATAAAATATATTAAAAACCA [CACACA_negctrl_site80]	9.51
GCAACACAAAAAATTACACACAAAAAAAATATATTA [CACACA_site916]	9.86
ATACATAAATACAAACGTACATACATACATACATAC [XGTACX_site7824]	9.88
CAGCTCTTAAGAATTACACACATATACACATATATA [CACACA_site7524]	9.95
GAAGAAAAAAAATATACACACATACGATCATACATA [CACACA_site5227]	10.2
TCCTTTATTTTTAAAGTGCATATACATGTACATTAT [GTGCAC_site9445]	9.71
ATTCAAAAGATGTATACACACATGTGTATAATATAA [CACACA_site7197]	9.99
AATAATATATATATAATACACACTATTATAATCACA [CACACA_site1310]	9.79
TTTTAATGTACCAGTGTGCACCTTGCGTACATATTA [GTGCAC_site9957]	9.66
TTATACAAATTCATGGGTACAAACAAACATATATCA [XGTACX_site6237]	9.67
TATACCTATAAATACACACACATATAAATAAATATA [CACACA_site6153]	10.2
AAAATATATACTCCATCACACACCAAAAAGAAAAAA [CACACA_site2542]	10.5
AATAATAAAAAATATACACACATATATATATATATA [CACACA_site25]	9.74
AAAAAAAAAAAAAAATGTACATATGGTATGCATATA [XGTACX_site3225]	9.72
GCTTATAAAGGCAGAAGTACTGTATTCCTATATATA [XGTACX_site8865]	9.51
TTGGCATACGGACACACACACACACCCAGACATATA [CACACA_site4492]	10.4
TTTAAATATTTTAATACACACACGATATGTACAAAA [CACACA_site4455]	9.78
TACAATGAAAAAATAACATGCAATTATATTTCTCTT [TGCATGCA_site833]	9.52
ACGTGATAAATAAATACATGCATAGAAAGATGCATA [TGCATGCA_site91]	9.61
TATATATATATATATTGTACTAGTGCATATATATAC [XGTACX_site7926]	9.61
ATTAAATTTCCTTGAGTGCACATTTTGTTAAAATAT	9.64
ATAACATATTTCTTTTGTACTCAAAATAAAATTAAT [XGTACX_site2479]	9.49
AATTTTGTTGAGCACACACACATACATACATACATA [CACACA_site3154]	10.4

Sequence	gcPBM binding intensity (ln)
AAATATATTTTATTTTGTACTTATGTATAAAATATA [XGTACX_site914]	9.52
TGGTATTGAATTTTTTGTACACATAAAATATATATA [XGTACX_site7614]	9.54
GTGCCATTTAAAAAATGTACAAGAAAATGTTCATCA [XGTACX_site2865]	9.43
ACCAAAAAAAAAAAAAAAAAAATATACATATATATA [GTGCAC_negctrl_site582]	9.3
TTTTTTTTGGTATAATGTACATTTTCACTTATGTAT [XGTACX_site3259]	9.76
ATTTTATTTTCTCACACACACATATATATATATATA [CACACA_site5781]	10.2
ACATATGTTAAAAAGGCATGCATTCTTTTTATTTTA [TGCATGCA_site1043]	9.56
TATATATCGCATAAAACACACAAAAAAAAAATTAAA [CACACA_site7767]	9.91
AAAAAAAAAATATACACACACACATACACATAAATA [CACACA_site3808]	10.4
ATATATATCTTTTGTGTGCACATATATATAATATAT	10.5
TTATATTCTATTTATTGTACTTAAATATATATATAT [XGTACX_site6400]	9.7
TATTTTCCCTCCATATGTACTTAATTATAAGCACAT [XGTACX_site4000]	9.69
AAACGAAAAAAATGGTGTACATTAAAATGAAAATTG [XGTACX_site7040]	9.74
TCTATCTTTTCCAAACGTACATTTTTTATATAAATT [XGTACX_site5352]	9.77
ATTTCATTTATAAGGATATCTACTTTTTATTTTAAT [GTGCAC_negctrl_site59]	9.64
TTTTTTTTCCTAATGTGTACTAAAAATGAACAATAA [XGTACX_site5248]	9.41
TTTTTTATTTTATTTTATTTTTATTTTTTTTTTTTT [GTGCAC_negctrl_site596]	9.42
AACATTATTTTGTGTACACATTCGGTTATATTATAT [CACACA_site5628]	10
ATATTTTTTTCATAGACACACACAATATATCTGTTT [CACACA_site8993]	10.1
AAAAAAAAGAAACACACACACATACACATAAATATA [CACACA_site3807]	10.5
ACTTTATTTTCCTGTACACACATTTGACATATTAAA [CACACA_site3378]	9.93
CACCAAACTAAATGTACACACATACATAAATATAAA [CACACA_site4765]	9.92
AAAAACAAAAAAAAAACACACAATTCTAGTTATTTT [CACACA_site2767]	9.63

Sequence	gcPBM binding intensity (ln)
TTTATGTAAAAATATAGTACATATTAAAAGATAAGA [XGTACX_site8134]	9.75
ATATATTCCATAAAGGTGCTGTTAACGTGTCAACGT [GTGCAC_site9402]	9.46
TAAGTATACACATACACACACACACTAAAAAAAAAA [CACACA_site6337]	10.5
TAAACATAAATATGCACACATATACAGATATTCATA [CACACA_site5471]	9.82
TTTTACTTAAGACACACACACACAAAAAAAAAAAAA [CACACA_site6573]	10.8
ATAAAATACATATAAACACACATATAAACCGACATA [CACACA_site2477]	10.1
AGTTTTTACTCTAATGGTACAGTGCAACTAATAAAT [XGTACX_site6950]	9.49
AAAAAGAGGAAAAAGATAAAGAAATTAAAGGAGAGA [CACACA_negctrl_site423]	9.62
TTTAATCATTTTATTTGTACTCATAAAAAATATAAT [XGTACX_site5537]	9.45
AAAAAATATAAAAAAAGTACACAAAAACTACAAAAA [XGTACX_site2677]	9.85
TAATTTCCTTAAGAATGTACTTACATTTTATTATTT [XGTACX_site5998]	9.58
ATGGACAAGTTAAACGCACACAAATATATACAGACA [CACACA_site1652]	10.2
TAATATGAAATGTGTACACACGCACCCACAAAAAAA [CACACA_site8949]	10.1
GTTTATGTATTATTATGTACGTATCATAATATATAT [XGTACX_site2385]	9.72
TCTGTAAACATATTCACACACATAAATTCGCATATA [CACACA_site1866]	10
ACAAAATAATTGTTTACACACCCATTTGTAATTTTA [CACACA_site3615]	9.78
TATCATTGTTCATGCTTGCACTTTTGTTACTGTTCC [GTGCAC_site9425]	9.87
GAAAATTTATATTGCACACATAGGGAATAAAAAAAA [CACACA_site2146]	9.99
AAAATGAAATATGTTATATATATATATATATATATA [CACACA_negctrl_site1752]	9.65
TGTATGAAAATAAATGCATGCCAAATATATATATAT [TGCATGCA_site132]	9.75
